Experimental findings from US20190359693A1 are described below.

Bounds are passed on as bounds.

The chains are these.
B1: MD2647 (Fc fusion)
chain 1: EVQLVESGGGLVQPGGSLRLSCAVSISIFDIYAMDWYRQAPGKQRDLVATSFRDGSTNYADSVKGRFTISRDNAKNTLYLQMNSLKPEDTAVYLCHVSLYRDPLGVAGGMGVYWGKGALVTVSS[gap - human IgG1 Fc with K409R (EU numbers)]GGGGSGGGGSEVQLVESGGGLVQPGGSLRLSCAATGFTLENKAIGWFRQTPGSEREGVLCISKSGSWTYYTDSMRGRFTISRDNAENTVYLQMDSLKPEDTAVYYCATTTAGGGLCWDGTTFSRLASSWGQGTQVTVSS
chain 2: EVQLVESGGGLVQAGGSLKLSCAASGRTYAMGWFRQAPGKEREFVAHINALGTRTYYSDSVKGRFTISRDNAKNTEYLEMNNLKPEDTAVYYCTAQGQWRAAPVAVAAEYEFWGQGTQVTVSSGGGGSGGGGSEVQLVESGGGLVQPGGSLRLSCAVSISIFDIYAMDWYRQAPGKQRDLVATSFRDGSTNYADSVKGRFTISRDNAKNTLYLQMNSLKPEDTAVYLCHVSLYRDPLGVAGGMGVYWGKGALVTVSS[gap - human IgG1 Fc with changes]GGGGSGGGGSEVQLVESGGGLVQPGGSLKLSCAASGFTFSTSWMYWLRQAPGKGLEWVSVINTDGGTYYADSVKDRFTISRDNAKDTLYLQMSSLKSEDTAVYYCAKDWGGPEPTRGQGTQVTVSS
B2: MD2632 (Fc fusion)
chain: EVQLVESGGGLVQPGGSLRLSCAVSISIFDIYAMDWYRQAPGKQRDLVATSFRDGSTNYADSVKGRFTISRDNAKNTLYLQMNSLKPEDTAVYLCHVSLYRDPLGVAGGMGVYWGKGALVTVSSGGGGSGGGGSEVQLVESGGGLVQPGGSLRLSCAVSISIFDIYAMDWYRQAPGKQRDLVATSFRDGSTNYADSVKGRFTISRDNAKNTLYLQMNSLKPEDTAVYLCHVSLYRDPLGVAGGMGVYWGKGALVTVSSGGGGSGGGGSEVQLVESGGGLVQAGGSLKLSCAASGRTYAMGWFRQAPGKEREFVAHINALGTRTYYSDSVKGRFTISRDNAKNTEYLEMNNLKPEDTAVYYCTAQGQWRAAPVAVAAEYEFWGQGTQVTVSS[gap - human IgG1 Fc]GGGGSGGGGSEVQLVESGGGLVQPGGSLRLSCAATGFTLENKAIGWFRQTPGSEREGVLCISKSGSWTYYTDSMRGRFTISRDNAENTVYLQMDSLKPEDTAVYYCATTTAGGGLCWDGTTFSRLASSWGQGTQVTVSSGGGGSGGGGSEVQLVESGGGLVQPGGSLKLSCAASGFTFSTSWMYWLRQAPGKGLEWVSVINTDGGTYYADSVKDRFTISRDNAKDTLYLQMSSLKSEDTAVYYCAKDWGGPEPTRGQGTQVTVSS
B3: MD2643 (Fc fusion)
chain 1: EVQLVESGGGLVQPGGSLRLSCAVSISIFDIYAMDWYRQAPGKQRDLVATSFRDGSTNYADSVKGRFTISRDNAKNTLYLQMNSLKPEDTAVYLCHVSLYRDPLGVAGGMGVYWGKGALVTVSSGGGGSGGGGSEVQLVESGGGLVQPGGSLRLSCAVSISIFDIYAMDWYRQAPGKQRDLVATSFRDGSTNYADSVKGRFTISRDNAKNTLYLQMNSLKPEDTAVYLCHVSLYRDPLGVAGGMGVYWGKGALVTVSSGGGGSGGGGSEVQLVESGGGLVQAGGSLKLSCAASGRTYAMGWFRQAPGKEREFVAHINALGTRTYYSDSVKGRFTISRDNAKNTEYLEMNNLKPEDTAVYYCTAQGQWRAAPVAVAAEYEFWGQGTQVTVSS[gap - human IgG1 Fc with K409R (EU numbers)]
chain 2: EVQLVESGGGLVQPGGSLRLSCAATGFTLENKAIGWFRQTPGSEREGVLCISKSGSWTYYTDSMRGRFTISRDNAENTVYLQMDSLKPEDTAVYYCATTTAGGGLCWDGTTFSRLASSWGQGTQVTVSSGGGGSGGGGSEVQLVESGGGLVQPGGSLKLSCAASGFTFSTSWMYWLRQAPGKGLEWVSVINTDGGTYYADSVKDRFTISRDNAKDTLYLQMSSLKSEDTAVYYCAKDWGGPEPTRGQGTQVTVSS[gap - human IgG1 Fc with changes]
B4: MD2645 (Fc fusion)
chain 1: EVQLVESGGGLVQAGGSLKLSCAASGRTYAMGWFRQAPGKEREFVAHINALGTRTYYSDSVKGRFTISRDNAKNTEYLEMNNLKPEDTAVYYCTAQGQWRAAPVAVAAEYEFWGQGTQVTVSSGGGGSGGGGSEVQLVESGGGLVQPGGSLRLSCAVSISIFDIYAMDWYRQAPGKQRDLVATSFRDGSTNYADSVKGRFTISRDNAKNTLYLQMNSLKPEDTAVYLCHVSLYRDPLGVAGGMGVYWGKGALVTVSSGGGGSGGGGSEVQLVESGGGLVQPGGSLRLSCAVSISIFDIYAMDWYRQAPGKQRDLVATSFRDGSTNYADSVKGRFTISRDNAKNTLYLQMNSLKPEDTAVYLCHVSLYRDPLGVAGGMGVYWGKGALVTVSS[gap - human IgG1 Fc with K409R (EU numbers)]
chain 2: EVQLVESGGGLVQPGGSLRLSCAATGFTLENKAIGWFRQTPGSEREGVLCISKSGSWTYYTDSMRGRFTISRDNAENTVYLQMDSLKPEDTAVYYCATTTAGGGLCWDGTTFSRLASSWGQGTQVTVSSGGGGSGGGGSEVQLVESGGGLVQPGGSLKLSCAASGFTFSTSWMYWLRQAPGKGLEWVSVINTDGGTYYADSVKDRFTISRDNAKDTLYLQMSSLKSEDTAVYYCAKDWGGPEPTRGQGTQVTVSS[gap - human IgG1 Fc with changes]
B5: MD2634 (Fc fusion)
chain: EVQLVESGGGLVQAGGSLKLSCAASGRTYAMGWFRQAPGKEREFVAHINALGTRTYYSDSVKGRFTISRDNAKNTEYLEMNNLKPEDTAVYYCTAQGQWRAAPVAVAAEYEFWGQGTQVTVSSGGGGSGGGGSEVQLVESGGGLVQPGGSLRLSCAVSISIFDIYAMDWYRQAPGKQRDLVATSFRDGSTNYADSVKGRFTISRDNAKNTLYLQMNSLKPEDTAVYLCHVSLYRDPLGVAGGMGVYWGKGALVTVSSGGGGSGGGGSEVQLVESGGGLVQPGGSLRLSCAVSISIFDIYAMDWYRQAPGKQRDLVATSFRDGSTNYADSVKGRFTISRDNAKNTLYLQMNSLKPEDTAVYLCHVSLYRDPLGVAGGMGVYWGKGALVTVSS[gap - human IgG1 Fc]GGGGSGGGGSEVQLVESGGGLVQPGGSLRLSCAATGFTLENKAIGWFRQTPGSEREGVLCISKSGSWTYYTDSMRGRFTISRDNAENTVYLQMDSLKPEDTAVYYCATTTAGGGLCWDGTTFSRLASSWGQGTQVTVSSGGGGSGGGGSEVQLVESGGGLVQPGGSLKLSCAASGFTFSTSWMYWLRQAPGKGLEWVSVINTDGGTYYADSVKDRFTISRDNAKDTLYLQMSSLKSEDTAVYYCAKDWGGPEPTRGQGTQVTVSS
B6: MD2618 (Fc fusion)
chain: EVQLVESGGGLVQPGGSLKLSCAASGFTFSTSWMYWLRQAPGKGLEWVSVINTDGGTYYADSVKDRFTISRDNAKDTLYLQMSSLKSEDTAVYYCAKDWGGPEPTRGQGTQVTVSSAAA[gap - human IgG1 Fc]GGGGSGGGGSEVQLVESGGGLVQPGGSLRLSCAVSISIFDIYAMDWYRQAPGKQRDLVATSFRDGSTNYADSVKGRFTISRDNAKNTLYLQMNSLKPEDTAVYLCHVSLYRDPLGVAGGMGVYWGKGALVTVSS
B7: MD2616 (Fc fusion)
chain: EVQLVESGGGLVQPGGSLRLSCAATGFTLENKAIGWFRQTPGSEREGVLCISKSGSWTYYTDSMRGRFTISRDNAENTVYLQMDSLKPEDTAVYYCATTTAGGGLCWDGTTFSRLASSWGQGTQVTVSSAAA[gap - human IgG1 Fc]GGGGSGGGGSEVQLVESGGGLVQPGGSLRLSCAVSISIFDIYAMDWYRQAPGKQRDLVATSFRDGSTNYADSVKGRFTISRDNAKNTLYLQMNSLKPEDTAVYLCHVSLYRDPLGVAGGMGVYWGKGALVTVSS

One experiment deals with hemagglutinin (HA) of influenza A/California/07/09 (H1N1) (influenza A virus). Nature of the experiment: cell-based or functional assay.
For B1, the Average neutralization titers is 2 nM.
Molecule B2 displayed an Average neutralization titers of 1.5 nM.
The molecule B3 came in with an Average neutralization titers of 2.8 nM.
On to B4, for which the Average neutralization titers worked out at 2.3 nM.
B5 registered an Average neutralization titers of 2.1 nM.

The target in the next experiment is hemagglutinin (HA) of influenza A/New Caledonia/20/99 (H1N1) (influenza A virus). Put plainly: cell-based or functional assay.
The molecule B1 returned an Average neutralization titers of 12.4 nM.
B2 gave an Average neutralization titers of 4.7 nM.
In turn, B3 registered an Average neutralization titers of 7.4 nM.
As to B4, the Average neutralization titers stood at 14.8 nM.
B5 yielded an Average neutralization titers of 9.3 nM.

A further experiment addresses hemagglutinin (HA) of influenza A/Vietnam/1194/04 (H5N1) (influenza A virus). Put plainly: cell-based or functional assay.
For B1, the Average neutralization titers was determined as 14.8 nM.
Molecule B2 gave an Average neutralization titers of 6.6 nM.
On to B3, for which the Average neutralization titers turned out to be 12.4 nM.
As to B4, the Average neutralization titers is 14.8 nM.
Molecule B5 had an Average neutralization titers of 7.9 nM.

A further experiment has as its target hemagglutinin (HA) of influenza A/WF/HK/MPA892/06 (H4) (influenza A virus). Nature of the experiment: cell-based or functional assay.
Molecule B1 showed an Average neutralization titers of 2.8 nM.
On the same count and under the same terms, under B2 stands 7 nM.
Consider B3, for which the Average neutralization titers is 9.3 nM.
B4 returned an Average neutralization titers of 2.8 nM.
In the case of B5, the Average neutralization titers stood at 2.5 nM.

A further experiment has as its target hemagglutinin (HA) of influenza A/Wisconsin/67/05 (H3N2) (influenza A virus). Nature of the experiment: cell-based or functional assay.
As for B1, the Average neutralization titers turned out to be 83.6 nM.
The molecule B2 gave an Average neutralization titers of 11.1 nM.
The same measure, in the same setting: under B3 stands 12.4 nM; under B4, 29.6 nM; under B5, 22.2 nM.

The target in the next experiment is hemagglutinin (HA) of influenza B/Florida/04/06 (Yamagata) (influenza B virus). Put plainly: cell-based or functional assay.
With B1, the Average neutralization titers stood at 22.2 nM.
Same read-out and setting: under B2 stands 1.2 nM.
Still for that read-out and setting: under B3 stands 2.8 nM; under B4, 2.8 nM; under B5, 1.5 nM.

A further experiment concerns the target hemagglutinin (HA) of influenza B/Harbin/7/94 (Yamagata) (influenza B virus). Nature of the experiment: cell-based or functional assay.
Molecule B1 displayed an Average neutralization titers of 35.2 nM.
As to B2, the Average neutralization titers stood at 2 nM.
Same read-out and setting: under B3 stands 5.2 nM; under B4, 3.7 nM.
Turning to B5, the Average neutralization titers worked out at 1.4 nM.

In another experiment the target is hemagglutinin (HA) of influenza B/Malaysia/2506/04 (Victoria) (influenza B virus). Put plainly: cell-based or functional assay.
In turn, B1 showed an Average neutralization titers of 29.6 nM.
Molecule B2 displayed an Average neutralization titers of 4.7 nM.
The molecule B3 registered an Average neutralization titers of 12.4 nM.
For the molecule B4, the Average neutralization titers turned out to be 8.8 nM.
Molecule B5 came in with an Average neutralization titers of 3.3 nM.

The next experiment has as its target hemagglutinin (HA) of influenza virus B/Florida/04/06 (Yamagata) (influenza B virus). Nature of the experiment: cell-based or functional assay.
Molecule B6 had an average neutralization titer of 0.8 nM.
On to B7, for which the average neutralization titer was determined as 233 nM.

Another experiment deals with hemagglutinin (HA) of influenza virus H1N1 A/New Caledonia/20/99 (influenza A virus). Nature of the experiment: cell-based or functional assay.
Molecule B7 gave an average neutralization titer of 20.6 nM.

The next experiment has as its target hemagglutinin (HA) of influenza virus H3N2 A/Brisbane/10/07 (influenza A virus). Nature of the experiment: cell-based or functional assay.
Take B6: the average neutralization titer was more than 1000 nM.
The molecule B7 yielded an average neutralization titer of 932 nM.

The next experiment has as its target hemagglutinin (HA) of influenza virus H3N2 A/Wisconsin/67/05 (influenza A virus). Put plainly: cell-based or functional assay.
As to B6, the average neutralization titer was more than 1000 nM.
B7 came in with an average neutralization titer of 932 nM.
